About 150 (0.041%) of roughly 370,000 compounds were called active. This list was built around the results that the source calls inconclusive (neither active nor inactive); the mix of calls is not that of the screen. Calls come from the whole dose curve; as a rule, active = well fitted inhibition curve with a large enough effect; inconclusive = small, poorly fitted or top-dose-only effect; inactive = flat fitted curve, though single readings scatter. No potency is given beside an inconclusive call; the fits are too rough.
target: Beta-lactamase (Escherichia coli (strain K12)) (UniProt P00811); test: qHTS Inhibitors of AmpC Beta-Lactamase (assay with detergent); conditions: AmpC hydrolysis of nitrocefin, absorbance 480 nm, 0.01% Triton; series mostly up to 114 µM; note: nearly all actives have a fitted effect of over 25% in size
Chain of UniProt P00811 (P00811 whole entry, looked up): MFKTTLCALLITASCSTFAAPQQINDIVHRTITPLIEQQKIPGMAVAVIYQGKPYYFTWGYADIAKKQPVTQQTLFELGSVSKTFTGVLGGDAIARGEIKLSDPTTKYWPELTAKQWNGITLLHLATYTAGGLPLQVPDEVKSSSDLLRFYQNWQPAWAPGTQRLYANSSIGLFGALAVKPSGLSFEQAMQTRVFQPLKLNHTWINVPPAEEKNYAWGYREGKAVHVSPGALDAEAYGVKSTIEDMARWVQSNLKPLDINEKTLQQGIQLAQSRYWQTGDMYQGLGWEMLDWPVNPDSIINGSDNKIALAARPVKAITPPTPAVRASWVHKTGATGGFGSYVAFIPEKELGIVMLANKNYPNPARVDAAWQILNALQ
Method in brief: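 AmpC (5.3 nM in the dispensed reagent) in 20 mM phosphate pH 7.0 with 0.01% (detergent screen) or 0.0001% Triton X-100 was preincubated with compounds for 15 min at room temperature. Nitrocefin was then added from an 800 uM solution, and hydrolysis was followed at 480 nm.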
Potency is the fitted concentration of half-maximal effect; tags give direction and shape of the fitted curve.

Row | SMILES | Potency
1 | Cc1cc(N2C(=O)C(O)=C(C(=O)c3cccs3)C2c2cccc(Br)c2)no1 (centres undefined) | inactive
2 | Cc1nc(S(=O)(=O)c2ccc(Cl)cc2)c(NCc2ccccc2)o1 | active: 56.2 µM
3 | COC(=O)c1ccccc1NC(=O)CSc1nc2ccccc2nc1Cc1ccc(F)cc1 | inactive
4 | CCn1nc(NC(=O)c2ccncc2)c2cc3cc(C)ccc3nc21 | inactive
5 | C=CCOc1c(Br)cc(CNc2ccc(NC(=O)CCC)cc2)cc1OCC | inconclusive [inhibitor, full curve]
6 | CN(C)S(=O)(=O)c1ccc(/C(O)=C2/C(=O)C(=O)N(Cc3cccnc3)C2c2ccco2)cc1 (centres undefined) | inconclusive [inhibitor, partial curve]
7 | Cc1ccc(-c2nn(-c3ccccc3)cc2/C=N/n2c(-c3ccncc3)n[nH]c2=S)cc1 | inactive
8 | CCCCc1ccc(/C(C)=N/Nc2cc(N3CCOCC3)nc(C)n2)cc1 | inconclusive [inhibitor, partial curve, poor fit]
9 | CCCCCn1c(N(C)Cc2ccccc2)nc2c1c(=O)[nH]c(=O)n2C | inconclusive [inhibitor, partial curve]
10 | COc1ccc(CNc2nc3nc(-c4ccccc4)cc(=O)n3[nH]2)cc1OC | inconclusive [inhibitor, full curve, poor fit]
11 | NS(=O)(=O)c1ccc(NC(=S)NC2CC2)cc1 | inactive
12 | Cc1cccc(OCC(=O)NCc2ccc(F)cc2)c1 | inconclusive [inhibitor, full curve, poor fit]
13 | COCc1cc(C)nc(SCC(=O)Nc2cc3c(cc2C#N)OCO3)c1C#N | inconclusive [inhibitor, partial curve]
14 | CCOC(=O)c1ccc(-n2c(CCC(=O)O)ccc2-c2ccccc2)cc1O | inactive
15 | CNS(=O)(=O)c1ccc(C)c(S(=O)(=O)NC)c1 | inconclusive [inhibitor, full curve, poor fit]
16 | Cc1c(NC(=O)CSCc2ccco2)c(=O)n(-c2ccccc2)n1C | inconclusive [inhibitor, single point]
17 | O=C(CSc1ncnc2c1cnn2-c1ccc(Cl)cc1)NCc1ccc2c(c1)OCO2 | inconclusive [inhibitor, full curve, poor fit]
18 | O=C(NCc1ccccc1)c1ccc[n+]([O-])c1 | inconclusive [inhibitor, full curve, poor fit]
19 | COc1ccccc1OCCn1ccnc1 | inconclusive [inhibitor, full curve, poor fit]
20 | O=C(Nc1ccccc1)/C(=C/c1cccc(Br)c1)NC(=O)c1ccco1 | inconclusive [inhibitor, partial curve, poor fit]
21 | CC(C)(C)C(=O)NCCn1ccc2ccccc21 | inconclusive [inhibitor, full curve, poor fit]
22 | O=C(c1ccco1)N1CCN(c2nc3ccccc3c(=O)n2-c2ccccc2)CC1 | inconclusive [inhibitor, full curve, poor fit]

Row | SMILES | Potency
23 | CC(C)CCNc1nc(Nc2ccccc2)c2cnn(C)c2n1 | inconclusive [inhibitor, single point]
24 | CC(Cn1cnc2ccccc21)C(=O)O (centres undefined) | inconclusive [inhibitor, single point]
25 | O=C1N/C(=C\c2ccc(N3CCOCC3)c(F)c2)C(=O)N1Cc1ccccc1 | inconclusive [inhibitor, partial curve, poor fit]
26 | COc1ccc(C(=O)NCC(=O)N/N=C/C(C)=C/c2ccco2)cc1OC | inconclusive [inhibitor, full curve, poor fit]
27 | COc1ccc(C(=O)NC2CCN(S(=O)(=O)Cc3ccccc3)CC2)c(OC)c1 | inconclusive [inhibitor, full curve, poor fit]
28 | CS(=O)c1ccccc1COC(=O)Nc1cccc(Cl)c1 (centres undefined) | inconclusive [inhibitor, full curve]
29 | Cc1ccc(-n2nnnc2SCc2ccc(C(=O)O)cc2)cc1C | inconclusive [inhibitor, partial curve, poor fit]
30 | Cc1cccc(C(=O)NNC(=O)c2ccccc2)c1 | inactive
31 | O=C(CNC(=O)c1ccccc1F)OCCCOC(=O)CNC(=O)c1ccccc1F | inconclusive [inhibitor, full curve]
32 | CN(C)c1cc[n+](CC(=O)Nc2ccc(Oc3ccccc3)cc2)cc1 | inactive
33 | Cc1ccsc1C(=O)OCc1csc(-c2ccccc2)n1 | inconclusive [inhibitor, full curve, poor fit]
34 | CCC1Sc2ccccc2N(CC(=O)NCCC2=CCCCC2)C1=O (centres undefined) | inconclusive [inhibitor, single point]
35 | CCOC(=O)c1sc(-c2ccccc2)nc1C | inconclusive [inhibitor, full curve, poor fit]
36 | Cc1ccc(C(=O)Nc2cc(-c3cn4cccnc4n3)ccc2C)cc1C | inactive
37 | CSCCC(NS(=O)(=O)c1ccc2c(c1)oc(=O)n2C)C(=O)NCc1ccc(Cl)cc1 (centres undefined) | inactive
38 | CCc1ccc(O)c(N=Cc2ccccc2O)c1 | inconclusive [inhibitor, full curve, poor fit]
39 | COc1cccc(C2C(C(=O)Nc3nc4ccccc4s3)=C(C)NC3=C2C(=O)CC(C)(C)C3)c1OC (centres undefined) | inconclusive [inhibitor, full curve, poor fit]
40 | CC1(c2ccc(OCC#N)cc2)C=C(c2ccc(OCC#N)cc2)n2nc(C(F)(F)F)nc2N1 (centres undefined) | inactive
41 | COc1ccccc1/C=C/c1ccc2cccc(O)c2n1 | inactive
42 | CCOc1ccc(N(CC(=O)Nc2cccc(OC)c2)S(C)(=O)=O)cc1 | inconclusive [inhibitor, full curve, poor fit]
43 | CCc1ccc(CNC(=O)Cn2nc(C)c3nn(-c4ccc(Cl)cc4)c(C)c3c2=O)cc1 | inactive
44 | O=C(NCc1cccnc1)/C(=C/c1ccccc1)NC(=O)c1ccccc1 | inconclusive [inhibitor, single point]
